Assay results as given in the supplement of paper PMC10126150.
Values marked as one replicate rest on one cluster of the flow cell; about a third of the high ones do not repeat.

Test system: ATP
Test: switch fluorescence ratio, 500 uM ATP over buffer (Cy3 cluster intensity, sum of 5 cycles each) (fold (ratio)); higher = stronger signal-on switching upon ATP binding; sequences stand for … in TCGTCGGCAGCGTCAGATGTGTATAAGAGACAGTTTTTTTTTTTTTTTTTTTTTTTTT…TC
Settings: aptamer strand: ATP DNA aptamer (quencher-CACCTGGGGGAGTATTGCGGAGGAAGG + anchor), 100 nM annealed; ATP concentration: 500 uM; one replicate
Outline: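 The fluorescence ratio divides summed target-cycle Cy3 intensity by summed buffer-cycle Cy3 intensity for each cluster and is averaged per switch-domain sequence. Cy3-labelled switching-strand clusters on a modified Illumina MiSeq flow-cell were annealed to 100 nM quencher-labelled ATP aptamer, then imaged in selection buffer and again after 15 min with 500 uM ATP at 22 °C. Five such cycles were run, with NaOH stripping and re-annealing between them, and clusters outside 100-1000 RFU were excluded.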
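Further: ATP exposure 15 min at 22 °C before imaging.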

| Sequence | switch fluorescence ratio |
| --- | --- |
| GGTTCGAGGT | 0.999 |
| GGTTCGTCAT | 0.998 |
| GGTTCTTATG | 0.98 |
| GGTTCTTCCG | 1.14 |
| GGTTCTTTTA | 0.964 |
| GGTTGAAGTC | 0.998 |
| GGTTGAATTC | 0.989 |
| GGTTGAGAAG | 1.03 |
| GGTTGATTGT | 1.07 |
| GGTTGCATGC | 0.999 |
| GGTTGCCAT | 0.974 |
| GGTTGCTTCA | 1.03 |
| GGTTGGATAC | 0.984 |
| GGTTGGATGC | 1 |
| GGTTGGGGA | 0.999 |
| GGTTGTAACG | 0.965 |
| GGTTGTCGCA | 1.13 |
| GGTTGTGACC | 1.02 |
| GGTTTACTAG | 1.02 |
| GGTTTATAGA | 0.976 |
| GGTTTATCTC | 0.982 |
| GGTTTCAAGT | 0.944 |
| GGTTTGGGAA | 0.983 |
| GGTTTGTGCA | 0.972 |
| GGTTTGTGCG | 0.999 |

| Sequence | switch fluorescence ratio |
| --- | --- |
| GGTTTTACGG | 0.989 |
| GGTTTTTG | 0.988 |
| GGTTTTTTCA | 1.01 |
| GTAAACATGG | 0.965 |
| GTAAACGGGG | 0.998 |
| GTAAACGTGC | 1 |
| GTAAAGGCTA | 0.999 |
| GTAAATAGTG | 1.05 |
| GTAACCGGTC | 1.11 |
| GTAACGACCT | 1.27 |
| GTAACGCAAG | 1.07 |
| GTAACTCGCT | 1.03 |
| GTAACTCTCG | 1.01 |
| GTAAGACTAT | 0.971 |
| GTAAGACTGG | 0.978 |
| GTAAGAGCGA | 1.04 |
| GTAAGCGATG | 0.989 |
| GTAAGGAATC | 1.04 |
| GTAAGGACTT | 1.03 |
| GTAAGGCGCG | 0.983 |
| GTAATAAGTC | 1.06 |
| GTAATACTCA | 3.83 |
| GTAATATGAA | 0.964 |
| GTAATGTGAG | 0.99 |
| GTAATGTGGA | 0.989 |

| Sequence | switch fluorescence ratio |
| --- | --- |
| GTACATTAGT | 1.01 |
| GTACGAAT | 0.993 |
| GTACGGACAG | 1.33 |
| GTACTAAATA | 0.991 |
| GTACTAATGT | 0.993 |
| GTACTAGGCG | 1.05 |
| GTACTAGTCC | 0.986 |
| GTACTTATAA | 1.05 |
| GTACTTATTG | 0.996 |
| GTACTTGCGT | 0.955 |
| GTACTTTTCA | 0.958 |
| GTACTTTTTT | 1.03 |
| GTAGAAACGG | 0.982 |
| GTAGAAGAAC | 1.02 |
| GTAGATAGTG | 0.989 |
| GTAGCATTCC | 3.97 |
| GTAGCGCATT | 1.08 |
| GTAGCGCTTG | 1.02 |
| GTAGCGTGAT | 1.02 |
| GTAGGCAGAT | 0.982 |
| GTAGGCATTT | 1.02 |
| GTAGGCCATA | 1.03 |
| GTAGGGAATT | 0.983 |
| GTAGGGAGCG | 0.937 |
| GTAGGTATTT | 0.996 |

| Sequence | switch fluorescence ratio |
| --- | --- |
| GTAGGTTAAG | 1 |
| GTAGGTTGCT | 1.02 |
| GTAGTAACCT | 1.69 |
| GTAGTAAGTG | 1.07 |
| GTAGTCGCGT | 0.985 |
| GTAGTCTA | 1.02 |
| GTAGTCTTCA | 1.05 |
| GTAGTGTCAT | 0.951 |
| GTAGTGTTCC | 1.08 |
| GTAGTTCTAT | 0.997 |
| GTATAAAATG | 1 |
| GTATAATTTA | 1.01 |
| GTATACCCAT | 1.01 |
| GTATACGGGC | 0.986 |
| GTATAGGTCC | 1.02 |
| GTATAGTATT | 0.974 |
| GTATATGTGG | 1.07 |
| GTATCAGAAT | 0.986 |
| GTATCGAGC | 1.01 |
| GTATCTGTGA | 0.99 |
| GTATGACGGA | 1.08 |
| GTATGGACGC | 1.02 |
| GTATGGACTC | 0.976 |
| GTATGGTTGA | 0.981 |
| GTATGTCGTC | 0.951 |

| Sequence | switch fluorescence ratio |
| --- | --- |
| GTATGTGCGC | 0.965 |
| GTATGTGGTA | 0.967 |
| GTATGTGTAC | 0.957 |
| GTATTAACAC | 1.02 |
| GTATTCACTT | 1.02 |
| GTATTCGCCG | 0.957 |
| GTATTGCACT | 0.987 |
| GTATTGCCTT | 1.02 |
| GTATTTATAG | 0.996 |
| GTATTTCGTC | 0.979 |
| GTATTTGTAT | 1.01 |
| GTCAAAAGCT | 1.06 |
| GTCAAAGGAG | 1 |
| GTCAATATAA | 0.951 |
| GTCAATATTA | 1.02 |
| GTCAATCCCC | 1.13 |
| GTCAATGAGT | 0.974 |
| GTCACAACAA | 1.03 |
| GTCACAAGTG | 1 |
| GTCACAATGT | 1.01 |
| GTCACATGAG | 0.993 |
| GTCACCCTGT | 1.02 |
| GTCACGGGCA | 1.06 |
| GTCAGGATTA | 1.02 |
| GTCAGGTACT | 1.03 |

| Sequence | switch fluorescence ratio |
| --- | --- |
| GTCATAAAC | 0.944 |
| GTCATAAGGT | 0.986 |
| GTCATAGAAG | 0.995 |
| GTCATGGTCG | 0.787 |
| GTCATGTAT | 1.02 |
| GTCATTTCTA | 0.981 |
| GTCCAAGGTA | 1 |
| GTCCACTACG | 1.07 |
| GTCCCACGGA | 0.98 |
| GTCCCAGAAA | 1.03 |
| GTCCCAGTAT | 1.02 |
| GTCCCTCACG | 1.02 |
| GTCCGGAAGG | 1.02 |
| GTCCGGAGGG | 0.99 |
| GTCCGGTGTG | 0.993 |
| GTCCGTTGGC | 1.09 |
| GTCCGTTTGA | 1 |
| GTCCTAGGCA | 0.983 |
| GTCCTCAATT | 1.12 |
| GTCCTCATGG | 0.997 |
| GTCCTCCGGA | 1.46 |
| GTCCTCTGGC | 1.04 |
| GTCCTGCGAA | 1.07 |
| GTCCTTACGA | 1.16 |
| GTCCTTCATA | 0.982 |

| Sequence | switch fluorescence ratio |
| --- | --- |
| GTCCTTTGTT | 1.05 |
| GTCGAAGC | 1.05 |
| GTCGACGCGC | 1.26 |
| GTCGATAACT | 1.02 |
| GTCGATCTGC | 0.939 |
| GTCGCGCTGC | 0.886 |
| GTCGCTGGAG | 0.998 |
| GTCGGCAGCT | 0.97 |
| GTCGGCCCAA | 1.05 |
| GTCGGGAGCG | 1.09 |
| GTCGGGGCTT | 1.02 |
| GTCGGTGGAT | 0.974 |
| GTCGTAAGCG | 0.902 |
| GTCGTAGTTA | 0.995 |
| GTCGTATCGG | 1.03 |
| GTCGTCAAGC | 1.02 |
| GTCGTGATGG | 0.98 |
| GTCGTGCGGG | 0.983 |
| GTCGTGTCCT | 1 |
| GTCGTTAGAA | 0.967 |
| GTCTAGTGGG | 1.01 |
| GTCTATTCGG | 1.03 |
| GTCTCCCAAA | 1.48 |
| GTCTCTATTA | 1.01 |
| GTCTCTTGGA | 0.951 |

| Sequence | switch fluorescence ratio |
| --- | --- |
| GTCTGAAGGT | 0.967 |
| GTCTGAGTTG | 0.955 |
| GTCTGATAGG | 1.03 |
| GTCTGATGTT | 1.01 |
| GTCTGTCAGT | 0.963 |
| GTCTTAGTCG | 1.01 |
| GTCTTATGCC | 0.969 |
| GTCTTCAAGT | 1.08 |
| GTGAAACGAT | 0.965 |
| GTGAAGATTC | 0.991 |
| GTGAATGGG | 0.962 |
| GTGAATTATT | 1.01 |
| GTGACAGTAT | 1.02 |
| GTGACGTAAC | 1.22 |
| GTGACTGCAA | 2.22 |
| GTGAGACATC | 1.01 |
| GTGAGACTT | 1.02 |
| GTGAGAGTTT | 1.04 |
| GTGAGCGAAG | 1.01 |
| GTGAGGGGTC | 0.977 |
| GTGAGTTAAA | 1.01 |
| GTGATCCTTG | 1 |
| GTGATTTAGG | 0.998 |
| GTGCAAAATA | 1.38 |
| GTGCACCGGA | 1.01 |
